The target of assay [1] is 6xHis-BRAF kinase domain, wild type (amino acids 442-723 with 16 solubilizing mutations) (UniProt P15056 442-723, I543A | I544S | I551 K | Q562R | L588N | K630S | F667E | Y673S | A688R | L706S …, biotin (Sulfo-NHS-biotin, 50 molar excess) in the pull-downs on streptavidin beads). Briefly: SPR.
Assay [2] concerns the target 6xHis-BRAF kinase domain D594G (amino acids 442-723 with 16 solubilizing mutations) (UniProt P15056 442-723, D594G | I543A | I544S | I551 K | Q562R | L588N | K630S | F667E | Y673S | A688R …, biotin (Sulfo-NHS-biotin, 50 molar excess) in the pull-downs on streptavidin beads). Briefly: SPR.

B1: His/MBP-BRAF NT1 ([…]) (domain or fragment)
chain: MAALSGGGGGGAEPGQALFNGDMEPEAGAGAGAAASSAADPAIPEEVWNIKQMIKLTQEHIEALLDKFGGEHNPPSIYLEAYEEYTSKLDALQQREQQLLESLGNGTDFSVSSSASMDTVTSSSSSSLSVLPSSLSVFQNPTDVARSNPK[about 80 residues omitted here]ENVPLTTHNFVRKTFFTLAFCDFCRKLLFQGFRCQTCGYKFHQRCSTEVPLMCVNYDQLDL
For the molecule B1, the Kd in assay [1] and in assay [2] was greater than 400 nM in each case.

Values taken from article PMC10752582 (2023).
